In PubChem BioAssay AID1671193 (National Center for Advancing Translational Sciences (NCATS), 2021):
Where “and” joins values, the source holds several entries; their conditions need not be identical. Equal values may be shown once. The whole screen tested about 150,000 compounds, of which about 180 (0.12%) were called active. The inconclusive results got no clear call from the source; some entries with a clear call stand among them for comparison. Calls follow the shape of the dose curve; as a rule, active = well fitted cell-killing curve with a large enough effect; inconclusive = small, poorly fitted or top-dose-only effect, or effect the other way; inactive = flat fitted curve, though single readings scatter. A potency beside an inconclusive call is a rough fit, not a confirmed value.
Potency is read from the fitted curve at half-maximal effect; tags tell the direction and shape of the fitted curve.

Assay: GF-AFC viability counterscreen for inhibitors of alpha-synuclein gene (SNCA) expression; also: nearly all actives have a fitted effect of over 30% in size;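 as to activity change, negative = cytotoxicity: 0% = DMSO-treated cells and -100% = medium-only wells without cells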
Conditions: HEK-293-SNCA-luc viability, GF-AFC fluorescence, 24 h; activity change, negative = cytotoxicity: at 57.1 µM (top of the series) unless noted
Outline: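 Cytotoxicity counterscreen: after 24 h compound treatment of genome-edited SNCA-luciferase HEK-293 cells, live-cell protease substrate GF-AFC read by fluorescence after 30 min; activity scaled between DMSO (0%) and medium-only (-100%), curves Hill-fitted.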
In the case of COCCNC(=O)[C@H]1C[C@H](Oc2ccccc2)CN1C(=O)c1ccccc1OC, the “activity change, negative = cytotoxicity” value is reported as inactive: 0.598%.
For COc1ccc(C2NC(=O)N(C)C3=C2C(=O)N(c2ccc(C(=O)O)cc2)C3)cc1 (configuration not stated), the activity change, negative = cytotoxicity was inconclusive: 35.5%.
For CCOc1cccc(-c2noc(-c3nnn4c3COC(c3ccc(Cl)cc3)C4)n2)c1 (configuration not stated), the “activity change, negative = cytotoxicity” value was inactive: 4.26%.
For CNC(=O)COC1CN(C(=O)c2ccc(C)cc2)CCC(=O)N(C)c2ccccc21 (configuration not stated), the Potency was inconclusive: 2.82 µM [cytotoxic, single point].
In the case of O=C(NCc1ccco1)c1cc(-c2ccccc2F)cc2c1OCCN2Cc1cccnc1, the Potency is reported as inconclusive: 15.8 µM [cytotoxic, partial curve, poor fit].
For COc1ccc(CCNc2ncnc3c2cnn3-c2cc(Cl)ccc2C)cc1, the Potency was inconclusive: 25.1 µM [cytotoxic, single point].
In the case of N#Cc1ccc(C(=O)NCc2nnc3ccc(-c4ccc(F)cc4)nn23)cc1, the Potency is reported as inconclusive: 12.6 µM [cytotoxic, partial curve, poor fit].
With COc1ccc(NCc2cccn2-c2nnc(N3CCCCC3)s2)cc1OC the Potency was inconclusive: 31.6 µM [cytotoxic, single point].
With Cc1csc2nc(COc3cccc(NC(=O)c4ccccc4F)c3)cc(=O)n12 the Potency was inconclusive: 11.2 µM [cytotoxic, partial curve, poor fit].
In the case of CCN(CC)CCCNc1ncnc2c1cnn2-c1ccc(C)c(C)c1, the Potency is reported as inconclusive: 22.4 µM [rising, single point].
For COc1cc(C)c(Sc2cnc(NC(=O)c3ccc(CNC(C)C(C)C)cc3)s2)cc1C(=O)N1CCN(C(C)=O)CC1 (configuration not stated), the Potency was active: 27.1 µM and inconclusive: 3.77 µM [cytotoxic, partial curve].
With CC(C)CC(=O)N1CCC2(CC1)OCC(C(=O)NCc1ccccc1)N2C(=O)c1ccccc1 (configuration not stated) the “activity change, negative = cytotoxicity” value was inactive: 0.699%.
In the case of COC(=O)c1ccccc1NC(=O)c1sc2nc(C)cc(C)c2c1NC(=O)c1ccccc1OC, the “activity change, negative = cytotoxicity” value is reported as inactive: 7.81%.
With Cc1ccc(Cl)cc1-n1ncc2c(N3CCN(Cc4ccccc4)CC3)ncnc21 the Potency was inconclusive: 20 µM [cytotoxic, partial curve].
For Cn1nc(C(=O)N2CCC3(CC2)N=C(c2ccc(Br)cc2)NO3)c2ccccc21, the “activity change, negative = cytotoxicity” value was inactive: -17.2%.
With COc1ccccc1CNC(=O)CN1C(=O)COc2ccc(S(=O)(=O)NC3CCCC3)cc21 the Potency was inconclusive: 6.31 µM [cytotoxic, full curve, poor fit].
For CN(C)C/C=C/C(=O)Nc1cccc(C(=O)Nc2ccc(Nc3nccc(-c4cccnc4)n3)cc2)c1, the Potency was inconclusive: 1.68 µM [cytotoxic, full curve, poor fit].
In the case of Cc1ccc(C(=O)NCCc2ncc(C)n2CC2CC2)cn1, the Potency is reported as inconclusive: 22.4 µM [cytotoxic, partial curve].
In the case of COc1ccccc1-c1[nH]nc2ncc(-c3cccc(F)c3)nc12, the Potency is reported as inconclusive: 28.2 µM [rising, partial curve, poor fit].
For COc1ccc(CCn2c3c(c(=O)[nH]c2=O)C(NC(=O)c2ccc(C(C)(C)C)cc2)(C(F)(F)F)C(=O)N3)cc1OC (configuration not stated), the Potency was inconclusive: 4.47 µM [cytotoxic, partial curve, poor fit].
For O=C(c1ccc(-c2cncnc2)cc1)N1CCC(C(=O)N2CCOCC2)CC1, the Potency was inconclusive: 7.08 µM [cytotoxic, single point].
With COCCCNC(=O)C(C)(C)Oc1nn(Cc2cccc(Cl)c2)c2ccccc12 the Potency was inconclusive: 35.5 µM [cytotoxic, single point].
In the case of CCc1ccc(C(=O)c2cn(Cc3ccc(F)cc3)c3cc(OC)c(OC)cc3c2=O)cc1, the Potency is reported as inconclusive: 1.26 µM [cytotoxic, full curve].
For Cc1ccc(CN2CCC3(CC2)CCN(Cc2ccco2)CC3CO)s1 (configuration not stated), the “activity change, negative = cytotoxicity” value was inactive: -8.78%.
In the case of Cc1onc(C(=O)N2CCN(C(c3ccc(Cl)cc3)c3ccc(Cl)cc3)CC2)c1[N+](=O)[O-], the Potency is reported as inconclusive: 37.7 µM [cytotoxic, single point].
For O=C(c1ccccc1OCC1CCCN(C(=O)C2CCCC2)C1)N1CCOCC1 (configuration not stated), the “activity change, negative = cytotoxicity” value was inactive: -15.8%.
For O=C(c1cc(C2CC2)nc2onc(C3CCNCC3)c12)N1CCOCC1, the “activity change, negative = cytotoxicity” value was inactive: 4.55%.
In the case of Cc1ccc(NC(=O)C2CCN(c3nn4cc(-c5ccc(C)cc5)nc4s3)CC2)cc1, the Potency is reported as inconclusive: 20 µM [cytotoxic, partial curve, poor fit].
With COc1ccc(OCC2(C)COc3ccc(C(=O)N(C)C)cc3N2)cc1 (configuration not stated) the Potency was inconclusive: 12.6 µM [cytotoxic, single point].
For O=C(N[C@@H]1CN(c2ncccn2)C[C@H]1CO)c1cccc(Cl)c1, the activity change, negative = cytotoxicity was inconclusive: 1.67%.
For Cc1ccc(-c2cc(C(=O)N3CCC(c4nc(C5CCOCC5)no4)C3)c3ccccc3n2)cc1C (configuration not stated), the Potency was inconclusive: 14.1 µM [cytotoxic, partial curve, poor fit].
For CCN(C(=O)c1cc2c(=O)oc3ccc(C)cc3c2s1)c1ccccc1C, the Potency was inconclusive: 28.2 µM [cytotoxic, partial curve, poor fit].
With O=C(NCC(F)(F)F)c1cn2cc(-c3ccccc3)sc2n1 the “activity change, negative = cytotoxicity” value was inactive: 2.14% [at 87.6 µM].
With Cc1ccc2nc(C3CCN(Cc4ccc(C#N)cc4)CC3)[nH]c(=O)c2c1 the Potency was “inactive”.
With COc1ccc(-c2[nH]nc3ncc(-c4cn[nH]c4)nc23)cc1F the Potency was inconclusive: 3.16 µM [cytotoxic, full curve, poor fit].
For COc1ccc(C(=O)N2CCc3ccc(C(=O)NC4CCCCC4)cc32)cc1, the Potency was inconclusive: 0.708 µM [cytotoxic, full curve].
With Cn1cnc(S(=O)(=O)N2CCCCC2c2noc(COCc3ccc(F)cc3)n2)c1 (configuration not stated) the “activity change, negative = cytotoxicity” value was inactive: 9.35%.
For CN1Cc2ncnc(N3CCN(Cc4ccccc4)CC3)c2CN(c2ccc(Cl)cc2)C1=O, the Potency was inconclusive: 31.6 µM [cytotoxic, partial curve, poor fit].
In the case of CN(C(=O)Cn1cccc1-c1nc(-c2ccc(F)cc2)no1)c1ccccc1, the Potency is reported as inconclusive: 17.8 µM [cytotoxic, partial curve, poor fit].
In the case of C=CCNC(=O)[C@@H]1Cc2cn(Cc3ccncc3)c3cccc(c23)[C@H](CC(C)C)N1, the Potency is reported as inconclusive: 35.5 µM [cytotoxic, single point].
In the case of COc1ccc(CCNC(=O)CCCCn2c(=O)c3ccccc3n(CC(=O)Nc3c(C)cccc3C)c2=O)cc1OC, the Potency is reported as inconclusive: 1.58 µM [cytotoxic, full curve, poor fit].
With COc1ccccc1NC(=O)c1cc2c(N3CCSCC3)nc(C)cn2n1 the “activity change, negative = cytotoxicity” value was inactive: 3.14%.
For C#CCNC(=O)c1ccc2nnc(-c3ccc(Cl)cc3)n2c1, the Potency was inconclusive: 56.2 µM [cytotoxic, single point].
With COc1cccc(C(=O)NCC2Cn3cccc3C(=O)N2C)c1 (configuration not stated) the Potency was inconclusive: 6.31 µM [rising, single point].
In the case of O=c1c(-c2ccccc2)nc2cnc(Nc3ccccc3)nc2n1C[C@H]1CCCO1, the Potency is reported as inconclusive: 6.31 µM [rising, single point].
With O=S(=O)(Nc1ccccn1)c1ccc(N=Cc2c(O)[nH]c3ccc4ncsc4c23)cc1 the Potency was inconclusive: 3.86 µM [rising, partial curve, poor fit].
In the case of COC(=O)CNC(=O)c1nc(-c2ccc(Cl)nc2)c2cnccn12, the Potency is reported as inconclusive: 20 µM [rising, partial curve, poor fit].
For COc1cccc(N2C(=O)NC(=NC3CCCC3)C23CCN(CC2CCCCC2)C3)c1 (configuration not stated), the Potency was inconclusive: 15.8 µM [cytotoxic, partial curve, poor fit].
In the case of N#Cc1cccc(C(=O)NCc2nnc3ccc(-c4ccc(F)cc4)nn23)c1, the “activity change, negative = cytotoxicity” value is reported as inactive: -14.7%.
For CC1=C(C(=O)Nc2ccc(C)cc2C)C(c2cccs2)n2nc(SCc3cccc(C)c3)nc2N1 (configuration not stated), the Potency was inconclusive: 44.7 µM [rising, single point].
In the case of CCNC(=O)N(C1CC1)C1CCOC2(CCN(C(=O)COc3ccc(C)cc3)CC2)C1 (configuration not stated), the Potency is reported as inconclusive: 4.47 µM [rising, full curve, poor fit].
In the case of O=c1c(-c2cccs2)nc2cnc(N3CCOCC3)nc2n1-c1ccccc1, the Potency is reported as inconclusive: 14.1 µM [rising, partial curve].
With COc1ccc(NC(=O)Cn2c(=O)n(-c3ccc(F)cc3)c(=O)c3c2cc(C)n3C)cc1OC the Potency was inconclusive: 12.6 µM [cytotoxic, partial curve, poor fit].
With CCCCCCNC(=O)Cc1csc2nc(C)c(-c3cc(C)n(-c4cccc(C)c4)n3)c(=O)n12 the “activity change, negative = cytotoxicity” value was inactive: -15.5%.
For COc1ccc(-c2cc(C(F)(F)F)n3nc(-c4ccccc4)cc3n2)cc1OC, the Potency was inconclusive: 1.41 µM [rising, partial curve, poor fit].
With COc1cccc(CN2CCCC(COc3ccccc3C(=O)NC(C)C)C2)n1 (configuration not stated) the Potency was inconclusive: 39.8 µM [cytotoxic, single point].
For CN(C)C[C@@H]1CN(S(C)(=O)=O)C[C@H]1NC(=O)c1ccc(Cl)cc1, the “activity change, negative = cytotoxicity” value was inactive: 17.5%.
With O=C1Cc2c(-c3ccccc3OCc3ccccc3)n[nH]c2CN1CCOc1ccccc1 the Potency was inconclusive: 22.4 µM [cytotoxic, partial curve, poor fit].
In the case of COc1cc2c(=O)c(S(=O)(=O)c3ccc(C)cc3)cn(Cc3cccc(C)c3)c2cc1OC, the Potency is reported as inconclusive: 20 µM [cytotoxic, single point].
In the case of O=C(CN1CCOCC1)N1C[C@@H](COCC2CC2)[C@H](c2ccccn2)C1, the Potency is reported as inconclusive: 39.8 µM [cytotoxic, single point].
In the case of CC(C)c1ccc(CN2CCCC3(CCN(S(C)(=O)=O)C3)C2=O)cc1 (configuration not stated), the “activity change, negative = cytotoxicity” value is reported as inactive: -3.34%.
For CCc1ccc(NC(=O)CSC2=Nc3ccccc3C3=NC(CC(=O)NCc4ccc5c(c4)OCO5)C(=O)N23)cc1 (configuration not stated), the Potency was inconclusive: 31.6 µM [cytotoxic, single point].
